Test results: PubChem BioAssay AID602310 (National Center for Advancing Translational Sciences (NCATS), 2012)
Values joined by “and” are separate entries in the source; they are usually repeats but may differ in a detail not shown here. Equal entries are not always repeated. Out of some 410,000 compounds screened, about 310 (0.076%) were called active. Inconclusive results, whose numbers are uncertain, are shown with a selection of clear calls. The call rests on the fitted dose curve; in most records, active means well fitted curve in the direction sought with a large enough effect; inconclusive means small, poorly fitted or top-dose-only effect; inactive means flat fitted curve, though single readings scatter. Potencies of inconclusive entries are doubtful fits and often do not repeat.

Biological target: DNA dC->dU-editing enzyme APOBEC-3G (Homo sapiens) (UniProt Q9HC16)
Chain of UniProt Q9HC16 (Q9HC16 whole entry, looked up): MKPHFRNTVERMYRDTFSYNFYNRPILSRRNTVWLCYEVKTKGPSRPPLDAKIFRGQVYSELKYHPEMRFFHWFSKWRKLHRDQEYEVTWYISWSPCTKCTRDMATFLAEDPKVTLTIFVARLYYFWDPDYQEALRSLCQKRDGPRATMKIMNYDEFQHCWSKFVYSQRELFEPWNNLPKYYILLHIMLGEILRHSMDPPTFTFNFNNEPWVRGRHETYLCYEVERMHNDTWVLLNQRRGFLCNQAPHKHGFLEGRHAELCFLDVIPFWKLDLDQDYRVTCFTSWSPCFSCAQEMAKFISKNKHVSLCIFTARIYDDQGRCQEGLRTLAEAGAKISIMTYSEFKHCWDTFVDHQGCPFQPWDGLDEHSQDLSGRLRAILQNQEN
Assay: qHTS for Inhibitors of Vif-A3G Interactions: qHTS; further: nearly all actives have a fitted effect of over 60% in size;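 on activity, negative = active: hits raise eYFP signal because A3G escapes Vif-driven loss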
Settings: HeLa A3G-eYFP + Vif (tagged APOBEC3G with the HIV-1 protein that degrades it), YFP fluorescence, overnight; series mostly up to 46.1 µM; activity, negative = active: at the top concentration
Procedure, shortened: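 HeLa cells stably expressing Vif and C-terminally eYFP-tagged A3G, seeded overnight at 37 deg C, then exposed to compound by pintool overnight at 37 deg C. Rise in yellow fluorescence (Ex 488/Em 500-530, Acumen) marks blocked Vif-driven A3G degradation.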
On the % scale 0 is the no-effect control and ±100 the full control effect; potency means the concentration at half of the fitted maximal effect; tags describe the fitted curve by direction and shape.

Compound	Potency	activity, negative = active
COc1ccc(Cl)cc1C=CC=Nc1ccccc1O	inconclusive: 28.2 µM [inhibitor, single point]	–
COc1cc(NC(=O)CN2CCN(S(=O)(=O)c3ccc(Br)cc3)CC2)cc(OC)c1	–	inactive: 6.1%
OC(c1cccc(Cl)c1)c1nc(-c2ccoc2)cs1 (configuration not stated)	inconclusive: 20 µM [inhibitor, single point]	–
C(=N\Nc1nc2ccccc2[nH]1)/c1ccc2c(c1)OCCO2	inconclusive: 35.5 µM [inhibitor, single point]	–
O=C(c1ccco1)N1CCN(C2CCCC2)CC1	inconclusive: 5.62 µM [inhibitor, single point]	–
CC(C(=O)Nc1cccc([N+](=O)[O-])c1)N1CCN(C/C=C/c2ccccc2)CC1 (configuration not stated)	–	inactive: 0.609%
O=C(CCC(=O)N1CC2CCCN2c2ccccc21)NCc1ccc(F)cc1 (configuration not stated)	–	inactive: -2.91%
CCOc1ccc(-c2cnc(NCc3cccc4ccccc34)n2CCOC)cc1	–	inactive: 2.45%
CCOC(=O)C1=CN(Cc2ccco2)S(=O)(=O)N(C)C1c1ccccc1 (configuration not stated)	inconclusive: 28.2 µM [inhibitor, partial curve, poor fit]	–
COc1ccc(-[n+]2c(C)cc(/C=C3\Sc4ccccc4N3C)cc2C)cc1	inconclusive: 3.55 µM [inhibitor, partial curve, poor fit]	–
Cc1ccc(C(C)C)c(Oc2nnnn2-c2ccccc2)c1	inconclusive: 10 µM [inhibitor, partial curve, poor fit]	–
COc1cc(/C=C2\SC(N3CCC(C)CC3)=NC2=O)ccc1O	inconclusive: 15.8 µM [inhibitor, single point]	–
N#C/C(=C\c1c[nH]c2ccccc12)C(=O)Nc1ncc(Cc2ccc(Cl)cc2Cl)s1	inconclusive: 35.5 µM [inhibitor, single point]	–
COc1ccc(OCc2nn3c(-c4ccco4)nnc3s2)cc1	–	inactive: -0.473%
CCCOc1c(OC)cccc1C1CC(=O)Nc2cc3c(cc21)OCCO3 (configuration not stated)	inconclusive: 6.31 µM [inhibitor, partial curve, poor fit]	–
COc1ccccc1/C=C/C=N/n1c(-c2n[nH]c3c2CCC3)n[nH]c1=S	inconclusive: 6.31 µM [inhibitor, full curve]	–
CC1CC(C)(C)N(C(=O)CN2CCN(C)CC2)c2ccccc21 (configuration not stated)	–	inactive: 6.12%
Cc1cc(C)c(OCC(=O)N/N=C/c2ccc3c(c2)OCO3)c(C)c1	inconclusive: 2.82 µM [inhibitor, full curve, poor fit]	–
C(=C/c1nccc2c1[nH]c1ccccc12)/c1ccc2c(c1)OCO2	inconclusive: 11.2 µM [inhibitor, partial curve, poor fit] and inconclusive: 14.1 µM [inhibitor, single point]	–
CCOc1ccc(S(=O)(=O)N2CCOCC2)cc1NC(=O)CSCc1ccc(C)cc1	inconclusive: 2.51 µM [inhibitor, full curve, poor fit]	–
CC(=O)c1ccc(-c2c(C3C4C=CCCC4(C)C(=O)N3Cc3ccccc3)ccc3ccccc23)cc1 (configuration not stated)	–	inactive: -4.59%

Compound	Potency	activity, negative = active
NNC(=O)c1sc2cc(C(F)(F)F)cnc2c1-c1cccs1	–	inactive: -15.1%
CCOC(=O)C(C(=O)OCC)[C@@H]1CS(=O)(=O)C[C@H]1C(C(=O)OCC)C(=O)OCC	–	inactive: -1.77%
COc1ccccc1NC(C#N)c1ccccc1OCc1ccccc1 (configuration not stated)	inconclusive: 14.1 µM [inhibitor, single point]	–
CCCCCCCCCCCCCCCC[n+]1ccc(/C=C/c2c(C)[nH]c3ccccc23)cc1	inconclusive: 35.5 µM [inhibitor, single point]	–
N#CC1=C(N)Oc2c(ccc3ccccc23)C1c1ccsc1 (configuration not stated)	inconclusive: 2.82 µM [inhibitor, full curve]	–
Cc1ccc(N(C)S(=O)(=O)c2ccc3[nH]c(=O)ccc3c2)cc1	–	inactive: -2.82%
CSc1nc(N)c(C#N)c(-c2ccc(Cl)cc2)c1C#N	inconclusive: 35.5 µM [inhibitor, partial curve, poor fit]	–
Cc1c(NC(=S)NC(=O)c2ccc(Cl)cc2)c(=O)n(-c2ccccc2)n1C	–	inactive: 0.0222%
Cc1nc2ccccc2nc1/C=C/c1ccc(N(C)C)cc1	inconclusive: 25.1 µM [inhibitor, single point]	–
CC(C)CC1C(=O)N(Cc2cn(CC3CCCCC3)nn2)CCS(=O)(=O)N1Cc1ccc(-c2ccncc2)cc1 (configuration not stated)	inconclusive: 35.5 µM [inhibitor, partial curve, poor fit]	–
COC(=O)c1ccc(CCc2cc(O)ccc2O)cc1	inconclusive: 35.5 µM [inhibitor, single point]	–
Cc1cc(C)n(-c2nc3ccccc3nc2Nc2ccc3[nH]c(=O)[nH]c3c2)n1	inconclusive: 28.2 µM [inhibitor, single point]	–
COc1cc(C2c3[nH]c4ccccc4c3CC3COC(=O)N32)cc(OC)c1O (configuration not stated)	inconclusive: 0.316 µM [inhibitor, full curve, poor fit]	–
CNC(=S)N/N=C/c1c2ccccc2c(Cl)c2ccccc12	inconclusive: 14.1 µM [inhibitor, single point]	–
N#Cc1ccc(-c2ccco2)nc1SCc1ccccc1	inconclusive: 8.91 µM [inhibitor, partial curve]	–
COCCN(C(=O)CSc1nnc(C)n1Cc1ccccc1)c1c(N)n(Cc2ccccc2)c(=O)[nH]c1=O	–	inactive: -0.314%
Oc1cc(O)cc(/C=C/c2ccc(O)c(O)c2)c1	inconclusive: 35.5 µM [inhibitor, single point]	–
CCOC(=O)n1c(=O)n(Cc2cccc(F)c2)c2ccccc21	–	inactive: -2.49%
CCN1CCN(c2nc(Nc3cccc(OC)c3)nc(N)c2[N+](=O)[O-])CC1	inconclusive: 8.91 µM [inhibitor, partial curve, poor fit]	–
CC(=O)Cc1nsc(NC(=O)c2ccc(-c3cc(Cl)ccc3Cl)o2)n1	inconclusive: 3.16 µM [inhibitor, single point]	–
O=C1NC(Cc2ccccc2)c2nc3cc(F)ccc3c(=O)n2-c2cc3ccccc3cc21 (configuration not stated)	inconclusive: 7.08 µM [inhibitor, full curve, poor fit]	–
